The text below walks through data of publication PMC5472792, “Bub1 positions Mad1 close to KNL1 MELT repeats to promote checkpoint signalling” (Nature Communications, 2017).

The target in this assay is T1, His tagged Mad1(485–718) (human, UniProt Q9Y6D9 485-718).
T1 construct: The Mad1 chain of m24; source: E. coli BL21(DE3), co-purified with Mad2 (HiTrap Ni column, Mono Q, Superdex 75)
T1 sequence (looked up): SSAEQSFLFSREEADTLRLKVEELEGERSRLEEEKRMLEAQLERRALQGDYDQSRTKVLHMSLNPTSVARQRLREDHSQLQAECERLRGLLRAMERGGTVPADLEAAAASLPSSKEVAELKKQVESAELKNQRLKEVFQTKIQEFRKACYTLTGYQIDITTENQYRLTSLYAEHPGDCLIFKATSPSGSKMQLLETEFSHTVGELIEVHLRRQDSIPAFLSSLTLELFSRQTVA
Put plainly: SEC-MALS; printed as 'multi-angle light scattering analysis' of all recombinant Mad1 complexes, purified from E. coli (Ni column, size exclusion); confirmed their predicted composition. Particulars: both partners purified.

B1: Mad2 (recombinant) (natural protein)
chain: not shown
notes: The Mad2 chain of m24
Turning to B1, the binding result is given as “binds”.
